Measurements: PubChem BioAssay AID1508623 (National Center for Advancing Translational Sciences (NCATS), 2021)
Among all 48,000 compounds or so, about 450 (0.94%) were called active. Roughly 19% stayed inconclusive and do not appear here. Calls follow the shape of the dose curve; as a rule, active = well fitted inhibition curve with a large enough effect; inconclusive = small, poorly fitted or top-dose-only effect; inactive = no such curve, though single readings can be large or run the other way. The list shows a part of the results.

assay: Primary qHTS for Identification of Small Molecule Inhibitors of Huntingtin Promoter Activity; conditions: HEK293 HTT promoter firefly luciferase reporter (activity 0% = vehicle and -100% = no light), 24 h; series mostly up to 57.5 µM; activity change, negative = inhibition: at the top concentration; also: nearly all actives have a fitted effect of over 50% in size
Summary of the method: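 HEK293 Fluc reporter, 2,500 cells/well, 24 h pre-culture; cpds up to 57.5 uM final, 24 h 37 degrees C; Dual-Glo, 10 min RT; normalized vehicle = 0%, zero RLU = -100%.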

Activity change, negative = inhibition, inactive:
CCOC(=O)c1[nH]c(C)c(CCC(=O)NCc2cccc(C)c2)c1C -3.21%
Cc1ccc(OCC(=O)N(Cc2ccco2)c2ccccn2)cc1 -0.496%
CCNC(=O)C1CCCN(c2nnc(C)c3c(C)n(-c4ccc(C)cc4)nc23)C1 (centres undefined) 0.357%
Oc1c(C(c2ccccc2Cl)N2CCOCC2)sc2nc(-c3ccco3)nn12 (centres undefined) -15.8%
CCC(=O)N1CCc2cc(CNC(=O)Nc3cc(C)ccc3C)ccc21 -22.9%
Cc1cccc(CNC(=O)CN2C(=O)C3CCCCN3c3ccc(C(=O)N4CCCC4)cc32)c1 (centres undefined) -4.86%
Cc1ccc(-c2nnc(Nc3ccc(Cl)c(Cl)c3)c3ccccc23)cc1S(=O)(=O)N(C)C -23.4%
Cc1ccc(C(=O)N2CCN(c3ccc(F)cc3)CC2)cc1NC(=O)c1nsc2ccccc12 16.4%
CC(=O)c1cccc(NC(=O)Cn2c(=O)oc3cc(S(=O)(=O)NC4CCCC4)ccc32)c1 -29.7%
CC(=O)c1ccc(Nc2nc3ccccc3nc2-n2nc(C)cc2C)cc1 -7.17%
CC(=O)N1CCN(c2nc3c(C)ccc(Cl)c3s2)CC1 -16.2%
Cc1nc(-n2nc(C)c(Cc3ccc(Cl)cc3)c2C)sc1C(=O)N1CCCCC1C (centres undefined) -4.17%
Cc1ccc(C)c(Cn2c3ccccc3c3cnn(CC(=O)NCC(C)c4ccccc4)c(=O)c32)c1 (centres undefined) 8%
O=C(CSCc1ccccc1Cl)NCc1ccc(Cl)c(Cl)c1 -5.59%
O=c1[nH]c2ccc(NCc3ccc(-c4ccc(Cl)cc4)o3)cc2[nH]1 -28.4%
CCOc1ccccc1Nc1nc(-c2ccc(C)cc2)c(CC(=O)O)s1 -1.48%
COc1ccc(CN(C(=O)Nc2cccc(OC)c2)C2CCN(C(C)=O)CC2)cc1 -19.2%
Cc1ccc(NC(=O)CN2C(=O)CC(c3ccc(F)cc3)=Nc3ccccc32)cc1F -9.06%
COc1ccc(C2c3c(oc4ccc(Cl)cc4c3=O)C(=O)N2CCCN(C)C)cc1OC (centres undefined) 10.9%
COc1cccc(CNC(=O)CN2C(=O)N(c3c(C)cccc3C)S(=O)(=O)c3ccccc32)c1OC -19.6%
CC[N+](C)(CC)CCOC(=O)C(O)(c1ccccc1)C1CCCCC1 (centres undefined) 12.5%
CO[C@H]1C[C@@H]2CC[C@@H](C)[C@@](O)(O2)C(=O)C(=O)N2CCCC[C@@H]2C(=O)O[C@H]([C@@H](C)C[C@@H]2CC[C@H](O)[C@H](OC)C2)CC(=O)[C@H](C)C=C(C)[C@@H](O)[C@@H](OC)C(=O)[C@H](C)C[C@H](C)C=CC=CC=C1C -5.04%
CCOc1ccc(NC(=O)Cn2nnc(C(=O)NCc3cccs3)c2N)cc1 -4.18%
COc1ccc(/C=C\c2onc(C)c2S(=O)(=O)N2CCC(C(=O)Nc3cccc(C)c3C)CC2)cc1 -13%
Cc1ccc(-n2c(=O)c3c(cnn3C)n(CC(=O)Nc3cc(C)ccc3C)c2=O)cc1 -2.62%
O=C1c2c(O)cccc2Cc2cccc(O)c21 16.8%
Cc1ccc(C(=O)c2cn(Cc3cccc(F)c3)c3nc(C)ccc3c2=O)cc1 -20.4%
COc1ccc(C(=O)NCc2ccc3c(c2)CCN3C(=O)c2cccc(C)c2)cc1OC -14.2%
Cc1oc2ncnc(N3CCOCC3)c2c1C(=O)NCc1ccccc1 -7.64%
COc1ccc(CCNC(=O)CSc2nc3ccccc3nc2Cc2ccc(Cl)cc2)cc1OC -8.13%
Cc1nc2sccn2c(=O)c1S(=O)(=O)N1CCN(c2ccc(F)cc2)CC1 -9.93%
Cc1cccc(NS(=O)(=O)c2ccc(Cl)c(C(=O)Nc3ccccc3C)c2)c1 -32.6%
CCCN(Cc1cccs1)C(=O)Nc1ccc(Br)c(C)c1 28%
CCCCOc1ccccc1NC(=O)Cn1c(-c2cncs2)nc2ccccc21 -16%
O=C(NC1CC(=O)N(c2ccccc2)C1)c1cc2ccccc2o1 (centres undefined) -23%
Cc1oc(-c2ccccc2)nc1CNS(=O)(=O)c1ccc(Cl)cc1 -3.13%
CC=C(C)C(=O)O[C@H]1C(C)=C[C@]23C(=O)[C@@H](C=C(CO)[C@@H](O)[C@]12O)[C@H]1[C@@H](C[C@H]3C)C1(C)C -10.5%
CN1CCN(Cc2c(O)ccc3cc(-c4ccccc4)c(=O)oc23)CC1 -4.81%
CCOc1ccc(-c2cc(C(=O)NCc3ccc(OC)cc3)c3c(-c4ccc(F)cc4)[nH]nc3n2)cc1 -12.4%
Cc1cccc(-c2nc(N3CCN(c4ccc(F)cc4)CC3)c3ccccc3n2)c1 -0.7%
COc1ccc(Nc2nc3c(S(=O)(=O)c4ccccc4)nnn3c3ccc(Cl)cc23)cc1OC -16.9%
CCOC(=O)c1cccc(NC(=O)c2cc3c(=O)n(Cc4cccnc4)ccc3nc2C)c1 -6.65%
CCCCCn1c(=O)[nH]c2cc(C(=O)N3CCN(c4ccccc4F)CC3)ccc2c1=O -27.2%
CCOC(=O)c1[nH]c2ccccc2c1NC(=O)c1ccc(OCC)cc1 -4.12%
Cc1ccc(-n2ncc3c(NCCCn4ccnc4)ncnc32)cc1 -22.3%
Cc1ccc(NC(=O)c2cc(-c3cccs3)on2)cc1C 63.3%
CCN1CCN(CCCNC(=O)c2cnn(-c3ccc(C)cc3)c2C2CCN(C(=O)OC(C)(C)C)CC2)CC1 -1.98%
COc1nccc(-c2c(-c3ccc(F)cc3)ncn2C2CCC(O)CC2)n1 (centres undefined) -1.63%
COc1cccc(-n2c(SCC(=O)Nc3ccc(F)cc3F)nc3c([nH]c4ccccc43)c2=O)c1 -39.6%
COc1ccccc1CNC(=O)c1cccc(NC(=O)N2CCSc3ncccc32)c1 -18.1%
COc1cc(-c2nc3cccc(C)n3c2Nc2ccc3c(c2)OCCO3)ccc1O 1.95%
CCCCOC(=O)c1ccc(NC(=O)CSc2nc3c(c(=O)[nH]2)CCC3)cc1 -29%
COc1ccc(CCNC(=O)c2ccc(Cn3c(=O)c4ccccc4n(Cc4ccccc4Cl)c3=O)cc2)cc1OC -9.12%
CCOc1cc(-c2ccc(OC(=O)c3ccc(Cl)cc3)c(OC)c2)cc(=O)c2c(C)oc(C)c12 11.6%
Cc1c(C(=O)NCc2ccc(F)cc2)sc2nc(-c3ccccc3)cn12 -18.6%
Cc1nnc(N2C(=O)c3oc4ccccc4c(=O)c3C2c2ccc(F)cc2)s1 (centres undefined) 0.556%
Oc1c(C(c2ccc(Cl)cc2)N2CCCC2)sc2nc(-c3ccco3)nn12 (centres undefined) 24.2%
CCOc1ccccc1C(=O)NCC(c1ccc(N(C)C)cc1)N1CCc2ccccc21 (centres undefined) -28.6%
Cc1ccc(Cl)cc1NC(=O)c1cc(-c2ccc3c(c2)OCCO3)on1 11.9%
